Results published in PubChem BioAssay (NCATS).
“And” between values parts separate entries of the source, which are not always exact repeats. Equal values may be shown once. Inconclusive results, whose numbers are uncertain, are shown with a selection of clear calls. For some assays here: Potencies beside an inconclusive call are fits to weak or partial responses and may not hold up. The source made the active and inactive calls. Calls come from the whole dose curve; as a rule, active = well fitted curve in the direction sought with a large enough effect; inconclusive = small, poorly fitted or top-dose-only effect, or another doubt; inactive = no such curve, though single readings can be large; an effect the other way counts as inactive or inconclusive.

Experiments:
[1] = Viability qHTS for spleen associated tyrosine kinase inhibitor (SYKi) naive MV4-11 cells (AID 1963823); conditions: MV4-11 AML viability, CellTiter-Glo luminescence, 72 h; series mostly up to 45 µM; note: nearly all actives have a fitted effect of over 40% in size
Procedure, shortened: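 In this viability screen, compounds acted on SYK inhibitor naive MV4-11 cells for three days (72 hr, 37 C). Remaining viable cells were measured by CellTiter-Glo luminescence following a 10 min room-temperature development.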

[2] = Viability qHTS for spleen associated tyrosine kinase inhibitor (SYKi) drug resistant MV4-11 cells (AID 1963824); note: nearly all actives have a fitted effect of over 35% in size
Procedure, shortened: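 SYK-inhibitor-resistant MV4-11 AML cells were seeded at 500 per well onto compound and cultured 72 hours (37 °C, 5% CO2). CellTiter-Glo was then added, and after 10 min at room temperature, luminescence gave viability.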

[3] = Quantitative highthroughput screen to assess conditional lethalithy of NOMO1 cells grown in RPMI1640 with untreated serum (RPMI+s) (AID 1963876); conditions: NOMO1 AML cells in RPMI+serum, CellTiter-Glo viability, 48 h; viability: at 45.8 µM (top of the series); note: nearly all actives have a fitted effect of over 35% in size
Procedure, shortened: (§1)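 Each medium arm—HPLM with 10% dialyzed FBS, or RPMI1640 with 5 mM glucose and 10% untreated or dialyzed FBS—was screened against an 11-point, 3-fold compound titration for 48 h at 37 °C, with CellTiter-Glo luminescence as endpoint.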

[4] = Quantitative highthroughput screen to assess conditional lethalithy of NOMO1 cells grown in RPMI1640 with dialyzed fetal bovine serum (RPMI+ds) (AID 1963877); note: nearly all actives have a fitted effect of over 30% in size
Procedure, shortened: as §1

[5] = Quantitative highthroughput screen to assess conditional lethalithy of NOMO1 cells grown in Human Plasma-Like Medium with dialyzed fetal bovine serum (HPLM+ds) (AID 1963878); conditions: NOMO1 AML cells in HPLM+ds, CellTiter-Glo viability, 48 h; viability: at 45.8 µM (top of the series); note: nearly all actives have a fitted effect of over 35% in size
Procedure, shortened: as §1

[6] = Quantitative highthroughput screen to assess conditional lethalithy of P12 Ichikawa cells grown in Human Plasma-Like Medium with dialyzed fetal bovine serum (HPLM+ds) (AID 1963879); conditions: Potency: viability; note: nearly all actives have a fitted effect of over 35% in size
Procedure, shortened: as §1

[7] = Quantitative highthroughput screen to assess conditional lethalithy of SEM cells grown in RPMI1640 with dialyzed fetal bovine serum (RPMI+ds) (AID 1963884); conditions: SEM B-ALL cells, RPMI+dialyzed FBS, CellTiter-Glo viability, 48 h; viability: at 45.8 µM (top of the series); note: nearly all actives have a fitted effect of over 35% in size
Procedure, shortened: as §1

[8] = Cellular viability qHTS for adrenocortical cancer (ACC) cell line SW-13 (AID 1963989); conditions: SW-13 ACC cells viability, CellTiter-Glo, 48 h; activity (max response): stronger effect = lower value; note: nearly all actives have a fitted effect of over 65% in size
Procedure, shortened: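 Luminescent ATP read-out (CellTiter-Glo, 20 min at room temperature) measured metabolically competent SW-13 cells after 48 h compound treatment. Final concentrations spanned up to 46 uM; bortezomib served as positive control.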

[9] = Cellular viability qHTS for adrenocortical cancer (ACC) cell line NCI-H295R (AID 1963990); conditions: CellTiter-Glo ATP luminescence, 48 h; series mostly up to 46.1 µM; note: nearly all actives have a fitted effect of over 60% in size
Procedure, shortened: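 IC50 and maximal efficacy derive from four-parameter logistic modelling of titration curves, with reads scaled between DMSO-only wells (0%) and doxorubicin hydrochloride (100% inhibition). Compounds spanned up to 46 uM over 48 h.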

[10] = Quantitative highthroughput screen to assess conditional lethalithy of P12 Ichikawa cells grown in RPMI1640 with dialyzed fetal bovine serum (RPMI+ds) (AID 1963880); conditions: Potency: P12-Ichikawa viability; note: nearly all actives have a fitted effect of over 35% in size
Procedure, shortened: as §1

[11] = Quantitative highthroughput screen to assess conditional lethalithy of P12 Ichikawa cells grown in RPMI1640 with untreated serum (RPMI+s) (AID 1963881); conditions: Potency: viability; note: nearly all actives have a fitted effect of over 35% in size
Procedure, shortened: as §1

[12] = Quantitative highthroughput screen to assess conditional lethalithy of SEM cells grown in Human Plasma-Like Medium with dialyzed fetal bovine serum (HPLM+ds) (AID 1963882); note: nearly all actives have a fitted effect of over 35% in size
Procedure, shortened: as §1

[13] = Quantitative highthroughput screen to assess conditional lethalithy of SEM cells grown in RPMI1640 with unreated serum (RPMI+s) (AID 1963883); conditions: SEM B-ALL cells, CellTiter-Glo viability, 48 h; viability: at 45.8 µM (top of the series); note: nearly all actives have a fitted effect of over 35% in size
Procedure, shortened: as §1
Potency is the fitted concentration of half-maximal effect; tags give direction and shape of the fitted curve.

SMILES | Potency [1] | Potency [2] | Potency [3] | Potency [4] | Potency [5] | Potency [6] | Potency [7] | Potency [8] | Potency [9] | Potency [10] | Potency [11] | Potency [12] | Potency [13]
O=C(O)c1cccc(-c2noc(-c3ccccc3F)n2)c1 | inconclusive: 13.3 µM [cytotoxic, partial curve] and inconclusive: 26.3 µM [cytotoxic, single point] | inconclusive: 10.6 µM [cytotoxic, partial curve] and inconclusive: 13 µM [cytotoxic, partial curve] | inactive | inactive | inactive | inactive | inactive | inconclusive: 14.6 µM [cytotoxic, partial curve] and inconclusive: 25.1 µM [cytotoxic, single point] | inconclusive: 1.03 µM [cytotoxic, full curve, poor fit] | – | – | – | –
COc1c(O)cc2c(c1O)[C@@H]1O[C@H](CO)[C@@H](O)[C@H](O)[C@H]1OC2=O | inactive | inactive | inconclusive: 33.2 µM [cytotoxic, single point] | inconclusive: 37.2 µM [cytotoxic, single point] | active: 14.8 µM | – | – | – | – | inconclusive: 14.8 µM [cytotoxic, partial curve] | inconclusive: 11.8 µM [cytotoxic, full curve] | active: 20.9 µM | –
CCN(C(=O)c1c(O)c2c(Cl)cccc2n(C)c1=O)c1ccccc1 | inconclusive: 5.25 µM [cytotoxic, full curve] | inconclusive: 3.32 µM [cytotoxic, full curve] | active: 1.66 µM | active: 2.64 µM | active: 1.32 µM | active: 3.32 µM | – | – | inconclusive: 10 µM [cytotoxic, full curve, poor fit] | – | – | active: 0.59 µM | –
CS(=O)(=O)Oc1ccc2c(NC(N)=O)c(C(=O)c3ccc(Cl)cc3Cl)oc2c1 | inconclusive: 16.6 µM [cytotoxic, partial curve] | inconclusive: 18.6 µM [cytotoxic, partial curve] | inconclusive: 23.5 µM [cytotoxic, single point] | inconclusive: 29.6 µM [cytotoxic, partial curve, poor fit] | inconclusive: 20.9 µM [cytotoxic, partial curve] | inconclusive: 20.9 µM [cytotoxic, partial curve] | inactive | – | inactive | inconclusive: 23.5 µM [cytotoxic, partial curve, poor fit] | inconclusive: 20.9 µM [cytotoxic, partial curve] | – | –
Cc1ccc(S(=O)(=O)Nc2nc3ccccc3nc2Nc2ccc3nsnc3c2)cc1 | inconclusive: 0.723 µM [cytotoxic, partial curve, poor fit] | inconclusive: 2.57 µM [cytotoxic, partial curve] | active: 1.15 µM | active: 1.62 µM | active: 1.02 µM | active: 5.75 µM | active: 4.07 µM | – | – | inconclusive: 9.11 µM [cytotoxic, partial curve] | – | – | inconclusive: 8.12 µM [cytotoxic, partial curve]
O=C(NOCC1CC1)c1ccc(F)c(F)c1Nc1ccc(I)cc1Cl | active: 3.76 µM and inconclusive: 4.61 µM [cytotoxic, partial curve] and inconclusive: 3.72 µM [cytotoxic, partial curve] | active: 3.35 µM and active: 2.91 µM and active: 2.35 µM | inconclusive: 1.87 µM [cytotoxic, full curve] | inconclusive: 1.48 µM [cytotoxic, full curve] | inconclusive: 0.662 µM [cytotoxic, full curve] | inconclusive: 4.18 µM [cytotoxic, partial curve, poor fit] | inconclusive: 8.33 µM [cytotoxic, partial curve, poor fit] | – | – | inconclusive: 5.26 µM [cytotoxic, full curve, poor fit] | – | – | inconclusive: 11.8 µM [cytotoxic, partial curve]
CC(=O)Nc1nc(C)c(-c2ccc(Cl)c(S(=O)(=O)NCCO)c2)s1 | active: 0.82 µM | active: 0.92 µM | inconclusive: 4.69 µM [cytotoxic, partial curve] | inconclusive: 0.743 µM [cytotoxic, full curve] | inconclusive: 0.743 µM [cytotoxic, full curve] | inconclusive: 1.32 µM [cytotoxic, full curve] | – | active: 17.8 µM | active: 25.1 µM | inconclusive: 0.833 µM [cytotoxic, full curve] | – | – | –
